The other results are listed elsewhere or left out. The energies were worked out here from pooled read counts, against the library average; single values are noisy.

This experiment has as its target T1, Pho4 (S. cerevisiae) (UniProt P07270).
T1 sequence: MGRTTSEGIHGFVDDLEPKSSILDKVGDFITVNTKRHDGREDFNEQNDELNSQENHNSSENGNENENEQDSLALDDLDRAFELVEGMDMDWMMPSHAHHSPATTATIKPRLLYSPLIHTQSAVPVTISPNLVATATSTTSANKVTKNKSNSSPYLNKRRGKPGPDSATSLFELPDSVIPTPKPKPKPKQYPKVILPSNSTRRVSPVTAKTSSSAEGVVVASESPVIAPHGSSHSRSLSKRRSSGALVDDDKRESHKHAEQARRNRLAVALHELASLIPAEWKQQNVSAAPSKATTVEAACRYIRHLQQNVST
The experiment can be described thus: relative binding free energy (BET-seq); higher = weaker binding. The settings on record: reference: library average.
In the case of GTTGGCACGTGGGGTT, the “relative binding free energy” value was -0.544 kJ/mol.
The same measure for GGGTACACGTGCGTTG: -0.167 kJ/mol; for AAGGGCACGTGGGAAT: 0.0837 kJ/mol.
For CGGGTCACGTGCTCGG, the “relative binding free energy” value was 0.0837 kJ/mol.
For the sequence GGCTTCACGTGGTTGG, the “relative binding free energy” value was found to be 1.46 kJ/mol.
Turning to GGTTTCACGTGAGGCC, the “relative binding free energy” value was found to be 2.09 kJ/mol.
For GTTTACACGTGTTATG the value was 0.586 kJ/mol.
The same measure for TCGGTCACGTGAGTGT: 1.21 kJ/mol; for GAAATCACGTGGAGTT: 1.46 kJ/mol.
For TGTGTCACGTGCTACG the value was 0.167 kJ/mol.
Take TGGCGCACGTGTGCTT: the “relative binding free energy” value was -0.293 kJ/mol.
For TCGCGCACGTGAGGGT the value was -0.167 kJ/mol.
For AGTGACACGTGGTGGG the value was -0.0418 kJ/mol; for GGCATCACGTGATGGA, 1.51 kJ/mol; for TGAGGCACGTGTATAA, -0.335 kJ/mol.
On to CTTAACACGTGTTGGT, for which the “relative binding free energy” value was -0.377 kJ/mol.
Take GGGAGCACGTGCTGTT: the “relative binding free energy” value was -0.669 kJ/mol.
For GTAGGCACGTGATGGG the value was 0.0418 kJ/mol; for TATAGCACGTGATTAG, 0 kJ/mol; for CAGTTCACGTGGGCTT, 0.753 kJ/mol.
In the case of ATGTGCACGTGTGACT, the “relative binding free energy” value came to 0.0418 kJ/mol.
The same measure for TTGTTCACGTGGATGT: 0.962 kJ/mol; for TTTTTCACGTGGCCTT: 0.879 kJ/mol; for GGTTTCACGTGCTTAG: 1.05 kJ/mol.
Consider GGGTTCACGTGCTGTT, for which the “relative binding free energy” value came to 0.628 kJ/mol.
The same measure for CTGTTCACGTGTGGAG: 0.753 kJ/mol; for AGGTGCACGTGGAGTT: -0.293 kJ/mol.
For AGGGCCACGTGTGTTT the value was -0.209 kJ/mol; for TGGCACACGTGGGTTG, -0.167 kJ/mol.
For ATCGTCACGTGGTTAG the value was 0.377 kJ/mol.
Take TGAGACACGTGTGTAT: the “relative binding free energy” value was determined as 0.46 kJ/mol.
Take GGTGGCACGTGGCAAT: the “relative binding free energy” value was found to be 0.418 kJ/mol.
The same measure for TTTTACACGTGAATGC: 1.63 kJ/mol; for TGTCTCACGTGGGCGT: 0.502 kJ/mol; for TTATCCACGTGTGTGT: -0.0418 kJ/mol.
For TGTCGCACGTGGGTTG the value was -0.753 kJ/mol; for CAGGTCACGTGGTGGA, -0.711 kJ/mol.
With TGAAACACGTGAAGGG, the “relative binding free energy” value worked out at 0.795 kJ/mol.
The same measure for TTAGTCACGTGGCTGA: 0.377 kJ/mol; for TGGGCCACGTGCGGAT: -0.795 kJ/mol; for TATGGCACGTGGTGAG: -0.335 kJ/mol.
The same measure for ATTGGCACGTGTATTA: -0.167 kJ/mol.
The same measure for GAGATCACGTGTGTGC: 0.544 kJ/mol; for TGTAACACGTGGAAGG: 0.251 kJ/mol.
Consider GTACTCACGTGCGGTT, for which the “relative binding free energy” value was 0.544 kJ/mol.
For AGGGGCACGTGTAAAT the value was -0.0418 kJ/mol; for GAGAGCACGTGGGGTG, -0.711 kJ/mol.
The same measure for TGTTCCACGTGTTGAA: 0.753 kJ/mol; for TTAGTCACGTGTGGTT: 0.92 kJ/mol.
The same measure for CGTGTCACGTGTGGTT: 0.126 kJ/mol; for TTGGTCACGTGTTTGG: 0.962 kJ/mol; for TGTCTCACGTGGTATA: 1.05 kJ/mol.
For GTGTTCACGTGCCTTT, the “relative binding free energy” value was determined as 1.17 kJ/mol.
The same measure for TTCAGCACGTGTTAAT: 0.0418 kJ/mol; for AGGGCCACGTGTGGTT: -0.0418 kJ/mol; for GGATTCACGTGGAGGG: 1.05 kJ/mol.
CTATTCACGTGGGCGT: the “relative binding free energy” value turned out to be 0.167 kJ/mol.
The same measure for TTTATCACGTGATACT: 0.251 kJ/mol; for AGTGTCACGTGGTAAT: -0.126 kJ/mol.
For GTGAACACGTGCTTGT the value was -0.126 kJ/mol; for CGGGTCACGTGAAGGA, 0.753 kJ/mol.
In the case of TATCGCACGTGAGTTA, the “relative binding free energy” value amounted to 0.418 kJ/mol.
Consider AAGTGCACGTGTGTGG, for which the “relative binding free energy” value was -0.126 kJ/mol.
On to GCGCGCACGTGTGAGT, for which the “relative binding free energy” value amounted to 0.46 kJ/mol.
The same measure for CGGAACACGTGGGATT: -0.0837 kJ/mol; for GATAGCACGTGTTGAG: -0.335 kJ/mol; for TGTGCCACGTGCTGGG: -0.628 kJ/mol.
Regarding GGTAGCACGTGCGATT, the “relative binding free energy” value was -0.0837 kJ/mol.
With TTCATCACGTGTGAGT, the “relative binding free energy” value was found to be 0.753 kJ/mol.
As to CGTTTCACGTGTCGGT, the “relative binding free energy” value turned out to be 1.38 kJ/mol.
The same measure for GTGCTCACGTGGATGT: 1.38 kJ/mol; for TTGAGCACGTGGATGG: -0.711 kJ/mol.
For ATGTGCACGTGCTATG the value was -0.377 kJ/mol.
Take TTTCGCACGTGAGTTA: the “relative binding free energy” value was determined as 0.879 kJ/mol.
The same measure for GCGTACACGTGCGGGT: 0.377 kJ/mol; for GGTTTCACGTGGTGTT: 1.26 kJ/mol.
For CGTGACACGTGGTGGT the value was -0.251 kJ/mol.
Take TCACGCACGTGTGGAG: the “relative binding free energy” value was 0.46 kJ/mol.
The same measure for CGGGGCACGTGGTGGT: -0.628 kJ/mol; for GGGTCCACGTGTGGCG: 0.251 kJ/mol.
As for ATCGTCACGTGTGTAG, the “relative binding free energy” value turned out to be 0.377 kJ/mol.
For GTATTCACGTGCGTGT the value was 0.544 kJ/mol; for TATGACACGTGTTTGT, 0.0418 kJ/mol.
Regarding TGCTGCACGTGTTTAG, the “relative binding free energy” value was -0.795 kJ/mol.
For TGCAGCACGTGGGGAT the value was -1.26 kJ/mol; for TAGGTCACGTGTCCTG, 0.251 kJ/mol.
Consider TGCATCACGTGGAGGG, for which the “relative binding free energy” value turned out to be 0.335 kJ/mol.
The same measure for ACTTGCACGTGGGGAG: -0.879 kJ/mol; for GTTAGCACGTGCGTAG: -0.0418 kJ/mol.
The same measure for TTTGCCACGTGAGTTT: 0.962 kJ/mol; for GGAGGCACGTGACATT: 0.669 kJ/mol; for GGCTTCACGTGGGTCG: 1.26 kJ/mol.
The same measure for GGCGGCACGTGGTGCT: -0.46 kJ/mol; for TGGACCACGTGGTGAG: -0.837 kJ/mol; for GTTAGCACGTGCGAGG: 0.418 kJ/mol.
Consider TTAACCACGTGGAGTG, for which the “relative binding free energy” value was -0.335 kJ/mol.
For GTGGACACGTGCTTTG, the “relative binding free energy” value is -0.251 kJ/mol.
For TGATGCACGTGGGGAT the value was -0.126 kJ/mol.
The same measure for GGGCGCACGTGTGTTT: 0.251 kJ/mol; for CGGGTCACGTGTGGTC: 0.209 kJ/mol; for TAGGTCACGTGGAGTC: 0.544 kJ/mol.
For CTTGTCACGTGGATGT the value was 0.586 kJ/mol; for AGGTTCACGTGATAGC, 1.84 kJ/mol.
Turning to TAGGGCACGTGTGGTC, the “relative binding free energy” value is -0.586 kJ/mol.
Take TCGATCACGTGTGGGC: the “relative binding free energy” value turned out to be 0.502 kJ/mol.
For the sequence CTTAACACGTGGTGAT, the “relative binding free energy” value is -0.0837 kJ/mol.
For TGTGGCACGTGACTAT the value was -0.0837 kJ/mol; for TGGGGCACGTGTTAGA, -0.335 kJ/mol.
The same measure for CTGATCACGTGGGGGT: 0.377 kJ/mol; for TGTCACACGTGAATGG: 1 kJ/mol.
For AAAGGCACGTGGAATT the value was 0.209 kJ/mol.
As to ATTTGCACGTGGGTAT, the “relative binding free energy” value is -0.586 kJ/mol.
For TGCTTCACGTGATAAG the value was 1.3 kJ/mol; for ATTCTCACGTGGATTT, 0.962 kJ/mol; for GAGATCACGTGGTTAC, 1.63 kJ/mol.

The record behind these values is the BET-seq Pho4 binding data (Le et al. 2018).
